# Measurements reported in the supplement of paper PMC8728848.
# The other results are listed elsewhere or left out.
# B1: HML-Native (Hypnea musciformis), P84871 (protein)
# chain: QKFCTLDIAPVCCQIVIGGGMYTAGNACMCEGFVSGVGRCENPKECPCTREAQIPSCCSSRWGLVSVTGKCACDCLGGTVAFPEPCPSPY
# Tests used:
# Assay in all cases: glycan array binding signal (z-score within array); higher = stronger binding
# Conditions in all cases: glycan notation: IUPAC condensed, linker removed
# Neu5Ac(a2-3)Gal = target: Neu5Ac(a2-3)Gal
# In short: (§1)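 Negative Z-scores can be read as non-binding. The Z-score is calculated within each array and then averaged across arrays of one protein sequence at different concentrations or buffers and across linkers. Arrays, 3228 in all, were curated from the Consortium for Functional Glycomics database and kept only where the protein sequence was available.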
# [1] = target: Neu5Ac(a2-3)Gal(b1-3)GalNAc
# In short: as §1
# [2] = target: Neu5Ac(a2-3)Gal(b1-3)GalNAc(b1-3)Gal(a1-4)Gal(b1-4)Glc
# In short: as §1
# [3] = target: Neu5Ac(a2-3)Gal(b1-3)GalNAc(b1-4)[Neu5Ac(a2-3)]Gal(b1-4)Glc
# In short: as §1
# [4] = target: Neu5Ac(a2-3)Gal(b1-3)GalNAc(b1-4)[Neu5Ac(a2-8)Neu5Ac(a2-3)]Gal(b1-4)Glc
# In short: as §1
# [5] = target: Neu5Ac(a2-3)Gal(b1-3)GalNAc6S
# In short: as §1
# [6] = target: Neu5Ac(a2-3)Gal(b1-3)GlcNAc
# In short: as §1
# [7] = target: Neu5Ac(a2-3)Gal(b1-3)GlcNAc(b1-2)Man
# In short: as §1
# [8] = target: Neu5Ac(a2-3)Gal(b1-3)GlcNAc(b1-2)Man(a1-3)[GlcNAc(b1-4)][Neu5Ac(a2-3)Gal(b1-3)GlcNAc(b1-2)Man(a1-6)]Man(b1-4)GlcNAc(b1-4)GlcNAc
# In short: as §1
# [9] = target: Neu5Ac(a2-3)Gal(b1-3)GlcNAc(b1-2)Man(a1-3)[Neu5Ac(a2-3)Gal(b1-3)GlcNAc(b1-2)Man(a1-6)]Man(b1-4)GlcNAc(b1-4)GlcNAc
# In short: as §1
# [10] = target: Neu5Ac(a2-3)Gal(b1-3)GlcNAc(b1-2)[Neu5Ac(a2-3)Gal(b1-3)GlcNAc(b1-4)]Man(a1-6)[Neu5Ac(a2-3)Gal(b1-3)GlcNAc(b1-2)Man(a1-3)]Man(b1-4)GlcNAc(b1-4)GlcNAc
# In short: as §1
# [11] = target: Neu5Ac(a2-3)Gal(b1-3)GlcNAc(b1-3)Gal(b1-3)GlcNAc
# In short: as §1
# [12] = target: Neu5Ac(a2-3)Gal(b1-3)GlcNAc(b1-3)Gal(b1-4)GlcNAc
# In short: as §1
# [13] = target: Neu5Ac(a2-3)Gal(b1-3)GlcNAc(b1-3)GalNAc
# In short: as §1
# [14] = target: Neu5Ac(a2-3)Gal(b1-3)GlcNAc(b1-4)Gal(b1-4)Glc
# In short: as §1
# [15] = target: Neu5Ac(a2-3)Gal(b1-3)GlcNAc(b1-6)GalNAc
# In short: as §1
# [16] = target: Neu5Ac(a2-3)Gal(b1-3)GlcNAc6S
# In short: as §1
# [17] = target: Neu5Ac(a2-3)Gal(b1-3)[Fuc(a1-4)]GlcNAc
# In short: as §1
# [18] = target: Neu5Ac(a2-3)Gal(b1-3)[Fuc(a1-4)]GlcNAc(b1-3)Gal(b1-3)[Fuc(a1-4)]GlcNAc
# In short: as §1
# [19] = target: Neu5Ac(a2-3)Gal(b1-3)[Fuc(a1-4)]GlcNAc(b1-3)Gal(b1-4)[Fuc(a1-3)]GlcNAc
# In short: as §1
# [20] = target: Neu5Ac(a2-3)Gal(b1-3)[GlcNAc(b1-6)]GalNAc
# In short: as §1
# [21] = target: Neu5Ac(a2-3)Gal(b1-3)[Neu5Ac(a2-6)]GalNAc
# In short: as §1
# [22] = target: Neu5Ac(a2-3)Gal(b1-3)[Neu5Ac(a2-6)]GlcNAc(b1-3)[Fuc(a1-3)[Gal(b1-4)]GlcNAc(b1-6)]Gal(b1-4)Glc
# In short: as §1
# [23] = target: Neu5Ac(a2-3)Gal(b1-3)]Neu5Ac(a2-3)Gal(b1-4)]GlcNAc
# In short: as §1
# Neu5Ac(a2-3)Gal(b1-4)Glc = target: Neu5Ac(a2-3)Gal(b1-4)Glc
# In short: as §1
# [24] = target: Neu5Ac(a2-3)Gal(b1-4)GlcNAc
# In short: as §1
# [25] = target: Neu5Ac(a2-3)Gal(b1-4)GlcNAc(b1-2)Man
# In short: as §1
# [26] = target: Neu5Ac(a2-3)Gal(b1-4)GlcNAc(b1-2)Man(a1-3)[GlcNAc(b1-4)][Neu5Ac(a2-3)Gal(b1-4)GlcNAc(b1-2)Man(a1-6)]Man(b1-4)GlcNAc(b1-4)GlcNAc
# In short: as §1
# [27] = target: Neu5Ac(a2-3)Gal(b1-4)GlcNAc(b1-2)Man(a1-3)[Neu5Ac(a2-3)Gal(b1-4)GlcNAc(b1-2)Man(a1-6)]Man(b1-4)GlcNAc(b1-4)GlcNAc
# In short: as §1
# [28] = target: Neu5Ac(a2-3)Gal(b1-4)GlcNAc(b1-2)Man(a1-3)[Neu5Ac(a2-3)Gal(b1-4)GlcNAc(b1-2)Man(a1-6)]Man(b1-4)GlcNAc(b1-4)[Fuc(a1-6)]GlcNAc
# In short: as §1
# [29] = target: Neu5Ac(a2-3)Gal(b1-4)GlcNAc(b1-2)Man(a1-3)[Neu5Ac(a2-6)Gal(b1-4)GlcNAc(b1-2)Man(a1-6)]Man(b1-4)GlcNAc(b1-4)GlcNAc
# In short: as §1
# [30] = target: Neu5Ac(a2-3)Gal(b1-4)GlcNAc(b1-2)[Neu5Ac(a2-3)Gal(b1-4)GlcNAc(b1-4)]Man(a1-3)[GlcNAc(b1-4)][Neu5Ac(a2-3)Gal(b1-4)GlcNAc(b1-2)[Neu5Ac(a2-3)Gal(b1-4)GlcNAc(b1-6)]Man(a1-6)]Man(b1-4)GlcNAc(b1-4)GlcNAc
# In short: as §1
# [31] = target: Neu5Ac(a2-3)Gal(b1-4)GlcNAc(b1-2)[Neu5Ac(a2-3)Gal(b1-4)GlcNAc(b1-4)]Man(a1-3)[GlcNAc(b1-4)][Neu5Ac(a2-3)Gal(b1-4)GlcNAc(b1-4)Man(a1-6)]Man(b1-4)GlcNAc(b1-4)GlcNAc
# In short: as §1
# [32] = target: Neu5Ac(a2-3)Gal(b1-4)GlcNAc(b1-2)[Neu5Ac(a2-3)Gal(b1-4)GlcNAc(b1-6)]Man(a1-6)[Neu5Ac(a2-3)Gal(b1-4)GlcNAc(b1-2)Man(a1-3)][GlcNAc(b1-4)]Man(b1-4)GlcNAc(b1-4)GlcNAc
# In short: as §1
# [33] = target: Neu5Ac(a2-3)Gal(b1-4)GlcNAc(b1-3)Gal
# In short: as §1
# [34] = target: Neu5Ac(a2-3)Gal(b1-4)GlcNAc(b1-3)Gal(b1-3)GlcNAc
# In short: as §1
# [35] = target: Neu5Ac(a2-3)Gal(b1-4)GlcNAc(b1-3)Gal(b1-4)GlcNAc
# In short: as §1
# [36] = target: Neu5Ac(a2-3)Gal(b1-4)GlcNAc(b1-3)Gal(b1-4)GlcNAc(b1-2)Man(a1-3)[Neu5Ac(a2-3)Gal(b1-4)GlcNAc(b1-3)Gal(b1-4)GlcNAc(b1-2)Man(a1-6)]Man(b1-4)GlcNAc(b1-4)GlcNAc
# In short: as §1
# [37] = target: Neu5Ac(a2-3)Gal(b1-4)GlcNAc(b1-3)Gal(b1-4)GlcNAc(b1-3)Gal(b1-4)GlcNAc
# In short: as §1
# [38] = target: Neu5Ac(a2-3)Gal(b1-4)GlcNAc(b1-3)Gal(b1-4)GlcNAc(b1-3)Gal(b1-4)GlcNAc(b1-2)Man(a1-3)[Neu5Ac(a2-3)Gal(b1-4)GlcNAc(b1-3)Gal(b1-4)GlcNAc(b1-3)Gal(b1-4)GlcNAc(b1-2)Man(a1-6)]GalNAc
# In short: as §1
# [39] = target: Neu5Ac(a2-3)Gal(b1-4)GlcNAc(b1-3)Gal(b1-4)GlcNAc(b1-3)GalNAc
# In short: as §1
# [40] = target: Neu5Ac(a2-3)Gal(b1-4)GlcNAc(b1-3)Gal(b1-4)GlcNAc(b1-3)[Neu5Ac(a2-3)Gal(b1-4)GlcNAc(b1-3)Gal(b1-4)GlcNAc(b1-6)]GalNAc
# In short: as §1
# [41] = target: Neu5Ac(a2-3)Gal(b1-4)GlcNAc(b1-3)Gal(b1-4)GlcNAc(b1-6)[Gal(b1-3)]GalNAc
# In short: as §1
# [42] = target: Neu5Ac(a2-3)Gal(b1-4)GlcNAc(b1-3)Gal(b1-4)[Fuc(a1-3)]GlcNAc
# In short: as §1
# [43] = target: Neu5Ac(a2-3)Gal(b1-4)GlcNAc(b1-3)GalNAc
# In short: as §1
binder,measurement,setting,value
B1,glycan array binding signal (z-score),Neu5Ac(a2-3)Gal,-0.249
same,glycan array binding signal (z-score),[1],-0.275
same,glycan array binding signal (z-score),[2],-0.338
same,glycan array binding signal (z-score),[3],-0.24
same,glycan array binding signal (z-score),[4],-0.25
same,glycan array binding signal (z-score),[5],-0.336
same,glycan array binding signal (z-score),[6],-0.278
same,glycan array binding signal (z-score),[7],-0.258
same,glycan array binding signal (z-score),[8],-0.21
same,glycan array binding signal (z-score),[9],-0.233
same,glycan array binding signal (z-score),[10],-0.141
same,glycan array binding signal (z-score),[11],-0.295
same,glycan array binding signal (z-score),[12],-0.286
same,glycan array binding signal (z-score),[13],-0.224
same,glycan array binding signal (z-score),[14],-0.324
same,glycan array binding signal (z-score),[15],-0.229
same,glycan array binding signal (z-score),[16],-0.047
same,glycan array binding signal (z-score),[17],-0.312
same,glycan array binding signal (z-score),[18],-0.196
same,glycan array binding signal (z-score),[19],-0.278
same,glycan array binding signal (z-score),[20],-0.128
same,glycan array binding signal (z-score),[21],-0.203
same,glycan array binding signal (z-score),[22],-0.259
same,glycan array binding signal (z-score),[23],-0.292
same,glycan array binding signal (z-score),Neu5Ac(a2-3)Gal(b1-4)Glc,-0.216
same,glycan array binding signal (z-score),[24],-0.181
same,glycan array binding signal (z-score),[25],-0.22
same,glycan array binding signal (z-score),[26],-0.312
same,glycan array binding signal (z-score),[27],-0.283
same,glycan array binding signal (z-score),[28],4.19
same,glycan array binding signal (z-score),[29],-0.345
same,glycan array binding signal (z-score),[30],-0.174
same,glycan array binding signal (z-score),[31],-0.309
same,glycan array binding signal (z-score),[32],-0.281
same,glycan array binding signal (z-score),[33],-0.283
same,glycan array binding signal (z-score),[34],-0.326
same,glycan array binding signal (z-score),[35],-0.218
same,glycan array binding signal (z-score),[36],-0.322
same,glycan array binding signal (z-score),[37],-0.179
same,glycan array binding signal (z-score),[38],-0.073
same,glycan array binding signal (z-score),[39],-0.282
same,glycan array binding signal (z-score),[40],-0.256
same,glycan array binding signal (z-score),[41],-0.277
same,glycan array binding signal (z-score),[42],-0.257
same,glycan array binding signal (z-score),[43],-0.202
